This is one part of the list.
Columns and labels:
Experiment in all cases: glycan array binding signal (z-score within array); higher = stronger binding
Settings in all cases: glycan notation: IUPAC condensed, linker removed; mutation: Y228W
[1] = target: Gal(b1-4)GalNAc(b1-3)[Fuc(a1-2)]Gal(b1-4)GlcNAc
Summary of the method: (§1)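 The binding signal is a Z-score computed within each array. Data were drawn from 3228 arrays in the Consortium for Functional Glycomics database, restricted to those with a known protein sequence. Scores were averaged over arrays of the same protein sequence at different concentrations or buffers, and over linkers, and negative values can be taken as non-binding.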

Gal(b1-4)Glc = target: Gal(b1-4)Glc
Summary of the method: as §1

Gal(b1-4)Glc6S = target: Gal(b1-4)Glc6S
Summary of the method: as §1

Gal(b1-4)GlcNAc = target: Gal(b1-4)GlcNAc
Summary of the method: as §1

[2] = target: Gal(b1-4)GlcNAc(a1-6)Gal(b1-4)GlcNAc
Summary of the method: as §1

Gal(b1-4)GlcNAc(b1-2)Man = target: Gal(b1-4)GlcNAc(b1-2)Man
Summary of the method: as §1

[3] = target: Gal(b1-4)GlcNAc(b1-2)Man(a1-3)Man(b1-4)GlcNAc(b1-4)GlcNAc
Summary of the method: as §1

[4] = target: Gal(b1-4)GlcNAc(b1-2)Man(a1-3)[Gal(b1-4)GlcNAc(b1-2)Man(a1-6)]Man(b1-4)GlcNAc(b1-4)GlcNAc
Summary of the method: as §1

[5] = target: Gal(b1-4)GlcNAc(b1-2)Man(a1-3)[Gal(b1-4)GlcNAc(b1-2)Man(a1-6)]Man(b1-4)GlcNAc(b1-4)[Fuc(a1-6)]GlcNAc
Summary of the method: as §1

[6] = target: Gal(b1-4)GlcNAc(b1-2)Man(a1-3)[Gal(b1-4)GlcNAc(b1-2)Man(a1-6)][Gal(b1-4)GlcNAc(b1-4)]Man(b1-4)GlcNAc(b1-4)[Fuc(a1-6)]GlcNAc
Summary of the method: as §1

[7] = target: Gal(b1-4)GlcNAc(b1-2)Man(a1-3)[Gal(b1-4)GlcNAc(b1-2)Man(a1-6)][GlcNAc(b1-4)]Man(b1-4)GlcNAc(b1-4)[Fuc(a1-6)]GlcNAc
Summary of the method: as §1

[8] = target: Gal(b1-4)GlcNAc(b1-2)Man(a1-3)[GlcNAc(b1-2)Man(a1-6)]Man(b1-4)GlcNAc(b1-4)GlcNAc
Summary of the method: as §1

[9] = target: Gal(b1-4)GlcNAc(b1-2)Man(a1-3)[GlcNAc(b1-4)][Gal(b1-4)GlcNAc(b1-2)Man(a1-6)]Man(b1-4)GlcNAc(b1-4)GlcNAc
Summary of the method: as §1

[10] = target: Gal(b1-4)GlcNAc(b1-2)Man(a1-3)[Man(a1-6)]Man(b1-4)GlcNAc(b1-4)GlcNAc
Summary of the method: as §1

[11] = target: Gal(b1-4)GlcNAc(b1-2)Man(a1-6)Man(b1-4)GlcNAc(b1-4)GlcNAc
Summary of the method: as §1

[12] = target: Gal(b1-4)GlcNAc(b1-2)Man(a1-6)[GlcNAc(b1-2)Man(a1-3)]Man(b1-4)GlcNAc(b1-4)GlcNAc
Summary of the method: as §1

[13] = target: Gal(b1-4)GlcNAc(b1-2)Man(a1-6)[Man(a1-3)]Man(b1-4)GlcNAc(b1-4)GlcNAc
Summary of the method: as §1

[14] = target: Gal(b1-4)GlcNAc(b1-2)[Gal(b1-4)GlcNAc(b1-4)]Man(a1-3)[Gal(b1-4)GlcNAc(b1-2)Man(a1-6)]Man(b1-4)GlcNAc(b1-4)GlcNAc
Summary of the method: as §1

[15] = target: Gal(b1-4)GlcNAc(b1-2)[Gal(b1-4)GlcNAc(b1-4)]Man(a1-3)[Gal(b1-4)GlcNAc(b1-2)[Gal(b1-4)GlcNAc(b1-6)]Man(a1-6)]Man(b1-4)GlcNAc(b1-4)GlcNAc
Summary of the method: as §1

[16] = target: Gal(b1-4)GlcNAc(b1-2)[Gal(b1-4)GlcNAc(b1-4)]Man(a1-3)[GlcNAc(b1-4)][Gal(b1-4)GlcNAc(b1-2)Man(a1-6)]Man(b1-4)GlcNAc(b1-4)GlcNAc
Summary of the method: as §1

[17] = target: Gal(b1-4)GlcNAc(b1-2)[Gal(b1-4)GlcNAc(b1-4)]Man(a1-3)[GlcNAc(b1-4)][Gal(b1-4)GlcNAc(b1-2)[Gal(b1-4)GlcNAc(b1-6)]Man(a1-6)]Man(b1-4)GlcNAc(b1-4)GlcNAc
Summary of the method: as §1

[18] = target: Gal(b1-4)GlcNAc(b1-2)[Gal(b1-4)GlcNAc(b1-6)]Man(a1-6)[Gal(b1-4)GlcNAc(b1-2)Man(a1-3)]Man(b1-4)GlcNAc(b1-4)GlcNAc
Summary of the method: as §1

[19] = target: Gal(b1-4)GlcNAc(b1-2)[Gal(b1-4)GlcNAc(b1-6)]Man(a1-6)[Gal(b1-4)GlcNAc(b1-2)Man(a1-3)]Man(b1-4)GlcNAc(b1-4)[Fuc(a1-6)]GlcNAc
Summary of the method: as §1

[20] = target: Gal(b1-4)GlcNAc(b1-2)[Gal(b1-4)GlcNAc(b1-6)]Man(a1-6)[GlcNAc(b1-4)][Gal(b1-4)GlcNAc(b1-2)Man(a1-3)]Man(b1-4)GlcNAc(b1-4)GlcNAc
Summary of the method: as §1

[21] = target: Gal(b1-4)GlcNAc(b1-2)[Gal(b1-4)GlcNAc(b1-6)]Man(a1-6)[GlcNAc(b1-4)][Gal(b1-4)GlcNAc(b1-2)[Gal(b1-4)GlcNAc(b1-4)]Man(a1-3)]Man(b1-4)GlcNAc(b1-4)[Fuc(a1-6)]GlcNAc
Summary of the method: as §1

[22] = target: Gal(b1-4)GlcNAc(b1-3)Gal(b1-3)GalNAc
Summary of the method: as §1

[23] = target: Gal(b1-4)GlcNAc(b1-3)Gal(b1-3)GlcNAc
Summary of the method: as §1

[24] = target: Gal(b1-4)GlcNAc(b1-3)Gal(b1-4)Glc
Summary of the method: as §1

[25] = target: Gal(b1-4)GlcNAc(b1-3)Gal(b1-4)GlcNAc
Summary of the method: as §1

[26] = target: Gal(b1-4)GlcNAc(b1-3)Gal(b1-4)GlcNAc(b1-2)Man(a1-3)[Gal(b1-4)GlcNAc(b1-3)Gal(b1-4)GlcNAc(b1-2)Man(a1-6)]Man(b1-4)GlcNAc(b1-4)GlcNAc
Summary of the method: as §1

B1: Epa1-NP-mutant-Y228W (Candida glabrata), Q6VBJ0 (protein)
chain: MILNPALFLNKCVCIYTTLILLLLTNGGYATSSNDISLASKDPTTFPLGCSPDITTPKKGLSMELYSYDFRKKGSYPCWDAAYLDPNYPRTGYKSHRLLAKVDGVTGNINFYYHATKGCTPQLGHLPASYNYPKPLTMTNFTMLLYGYFRPKVTGFHTFTISADDLLFVNFGAGNAFDCCRRDSSADHFGNYQAYAIWGSKTAKDELTVHLDAGVYYPIRLFYNNREWDGALSFTFKTESNENTVSDFSEYFFSLDDTEEGCPGLISYDSSCASVKTSKIIGIDYHTETPNENLVPITKTIYHLGIPCTGTTTTPLCGSGFYDPLANKCVTINTSSTSSVTKTTSHTTSKEVSFHSSISSQKTLIPKSIPSPYGPIKSQSIPTEMETSSEISSSEYAFSDVISTPSHSPYTKKHSSLNSSSYTSTVIHSLTSYSISQGIFSTSLSEQNITSKSSTDKFSTATSMSNNITQSSIIISQFSTNNENYTTTSMHTSSDKISTETLNNSISTTTSILFSNSSTILKNNTTIISSDKDTHYHPVNPTIVCSTNKTEIICASITQPSISNSNNHWSSSVLKFNSTTVRSTLPSSAGSNETSINVPFSSSTESNTSTSSTSTSNSKMVRSTLPSSAGSNETSISVPFSSSTESNTSTSSTSTSNSKMVRSTLPSSAGSNETSINVPFSSSTESNTSTSSTSTSNSKTVRSTPFSSAGIIMTSLSQRNNKSASSYASSNSKCYNTADSCRKVHSTPSYLLTSSYTSEGVDYDCSLVSTKLKINDTNCVNNKHTTKSCLKTSVTTTIPTLEIKTARKSSSNTIGLHSYPTSSPNKSISSAPIIGYISSFKTIKTASPSYQTSDLTTITTITSLNNPGSTAVENTHESNDKSRKTSSNDISSKHSVIKETKDAVESSNKSHQTNTLKCSSIIIASSSHNSYESLGGTTLTLTLSKVYSPQNNDTLPFLEISEVNPSRTVLPESSKMMQYLTSTEERNKTARNTIATNIVSISTFHFEGEGNAIRMGYTQLLLMLIGIIVMNIGT
glycan array binding signal (z-score) [1]: -0.075
glycan array binding signal (z-score) (Gal(b1-4)Glc): -0.312
glycan array binding signal (z-score) (Gal(b1-4)Glc6S): 0.17
glycan array binding signal (z-score) (Gal(b1-4)GlcNAc): 0.01
glycan array binding signal (z-score) [2]: 3.19
glycan array binding signal (z-score) (Gal(b1-4)GlcNAc(b1-2)Man): -0.121
glycan array binding signal (z-score) [3]: -0.231
glycan array binding signal (z-score) [4]: 0.353
glycan array binding signal (z-score) [5]: 0.093
glycan array binding signal (z-score) [6]: -0.314
glycan array binding signal (z-score) [7]: -0.241
glycan array binding signal (z-score) [8]: -0.222
glycan array binding signal (z-score) [9]: -0.226
glycan array binding signal (z-score) [10]: -0.183
glycan array binding signal (z-score) [11]: 0.003
glycan array binding signal (z-score) [12]: -0.486
glycan array binding signal (z-score) [13]: -0.17
glycan array binding signal (z-score) [14]: 0.858
glycan array binding signal (z-score) [15]: 0.937
glycan array binding signal (z-score) [16]: -0.126
glycan array binding signal (z-score) [17]: 0.196
glycan array binding signal (z-score) [18]: 0.422
glycan array binding signal (z-score) [19]: 0.722
glycan array binding signal (z-score) [20]: -0.205
glycan array binding signal (z-score) [21]: 0.2
glycan array binding signal (z-score) [22]: -0.229
glycan array binding signal (z-score) [23]: -0.281
glycan array binding signal (z-score) [24]: -0.195
glycan array binding signal (z-score) [25]: -0.236
glycan array binding signal (z-score) [26]: 0.392
